From paper PMC7819943, “Rice protein-binding microarrays: a tool to detect cis-acting elements near promoter regions in rice”
The list shows a part of the results.

What follows are sequences tested against T1, OsWOX13 (Oryza sativa, UniProt Q5QMM3 1-267) (assay: protein-binding microarray (RPBM); PBS, 2% BSA, 51.3 ng/ul salmon testes DNA, 50 uM zinc acetate, 200 nM TF, 25 C, 1 h; high values mean tight binding). Settings: protein: recombinant; tags: N-terminal polyhistidine and DsRed monomer fusion (pET32a); label: CyDye5-dUTP incorporated in the synthesized complementary strand; 3' TTTTT single-stranded linker to array surface; dsDNA, one strand shown.
T1 sequence: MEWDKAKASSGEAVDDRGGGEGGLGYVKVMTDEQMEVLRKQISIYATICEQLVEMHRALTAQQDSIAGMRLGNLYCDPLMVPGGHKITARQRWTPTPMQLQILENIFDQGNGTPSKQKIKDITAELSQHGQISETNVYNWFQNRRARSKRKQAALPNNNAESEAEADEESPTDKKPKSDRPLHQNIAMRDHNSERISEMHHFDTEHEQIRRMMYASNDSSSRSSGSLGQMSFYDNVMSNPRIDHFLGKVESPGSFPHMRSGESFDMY
Outline: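 Ni–NTA purification followed expression in E. coli BL21-CodonPlus of transcription factors fused N-terminally to a polyhistidine tag and DsRed. At 200 nM in PBS with 2% BSA, salmon testes DNA and 50 µM zinc acetate, the protein was incubated for 1 h at 25 °C with a custom Agilent array that had been primer-extended with Cy5-dUTP and blocked with 2% BSA. After washing, the array was read on an Axon 4000B scanner. The binding signal is per-feature fluorescence intensity in arbitrary units.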
With “ATGATTGTCTGATGTCAATTTATACGAAAGAATATGCTAGCGGAGTCACCTAGTGCAG” the binding signal was 32200 fluorescence intensity (a.u.). For “CATGATGGATATGAGTTGCTTCCTTGAACTCACTATATAACGGAGTCACCTAGTGCAG”, the binding signal was 13900 fluorescence intensity (a.u.). With “GCTGATTTTGTTGGCCGTAGTACAGCCCATGTTCTGGAGACGGAGTCACCTAGTGCAG” the binding signal was 9410 fluorescence intensity (a.u.). “TTGATTGTTGAGCATGAGAGACCCTCTATCTCGTCCCATACGGAGTCACCTAGTGCAG” was tested, and the binding signal was 28200 fluorescence intensity (a.u.). With “TCTTGATTGCAGATATCTATACAATCCCATCAAAGATTATCGGAGTCACCTAGTGCAG” the binding signal was 33100 fluorescence intensity (a.u.). “CACATGATTGATATCTCGTCACTGCTCGTAACTTCAGCCTCGGAGTCACCTAGTGCAG” was tested, and the binding signal was 62100 fluorescence intensity (a.u.). In the case of “TTCAATCAGGCTGTTGTCAGATTTGATCATTCGAACGACACGGAGTCACCTAGTGCAG”, the binding signal is reported as 5960 fluorescence intensity (a.u.). In the case of “AGGAGACGAGAGAGAATTAATTATCTCGGAGATGAGCGGCCGGAGTCACCTAGTGCAG”, the binding signal is reported as 6630 fluorescence intensity (a.u.). For “AATAGGTTAATTAAGTGCTAATCAAAATAGTAAGTCTAATCGGAGTCACCTAGTGCAG”, the binding signal was 19200 fluorescence intensity (a.u.). For “TAACATATGATTAATTAAGCATTAACAATTAAAATTTTAACGGAGTCACCTAGTGCAG”, the binding signal was 11100 fluorescence intensity (a.u.). In the case of “GATAGATAGTCATCAGATGGATAGATCAACAACAGAGAGGCGGAGTCACCTAGTGCAG”, the binding signal is reported as 3520 fluorescence intensity (a.u.). In the case of “CATGATTTGACAATATGGTGATACAGTAAATATTTGCTAACGGAGTCACCTAGTGCAG”, the binding signal is reported as 40600 fluorescence intensity (a.u.). In the case of “TCTAGGCAGATGCTTTCAATGATTGGCAATTGGCATTAAGCGGAGTCACCTAGTGCAG”, the binding signal is reported as 20900 fluorescence intensity (a.u.). For “AACAAATTGGGGCGAATTCTCGGTTAGCAGGTGGTGTATGCGGAGTCACCTAGTGCAG”, the binding signal was 15000 fluorescence intensity (a.u.). In the case of “TTTACATCAAATTATCTTGATATTTCTATAGTACTCTGAACGGAGTCACCTAGTGCAG”, the binding signal is reported as 5030 fluorescence intensity (a.u.). “GCAAATTTAAGCCAAATAGAGATAATAGTCTTGGATACCGCGGAGTCACCTAGTGCAG” was tested, and the binding signal was 3600 fluorescence intensity (a.u.). With “AGCTAATTGCCTCCTGCTAGCAAGATACTTAATAGTTGCACGGAGTCACCTAGTGCAG” the binding signal was 33600 fluorescence intensity (a.u.). “ACTTTTATTTAATTAAATTAATCTGTTGAGATTATCATTTCGGAGTCACCTAGTGCAG” was tested, and the binding signal was 12700 fluorescence intensity (a.u.). For “TCTGGGTGATTTGTTGCAAAAGAATATTTTAATTCACTGCCGGAGTCACCTAGTGCAG”, the binding signal was 14000 fluorescence intensity (a.u.). “CTGCAAATCATGGCGAAATGAACTAAGAAACTTCTTGTTACGGAGTCACCTAGTGCAG” was tested, and the binding signal was 4900 fluorescence intensity (a.u.). For “AGGCACAAATTGAACCAAACAGCACCTGACCATTGTATCCCGGAGTCACCTAGTGCAG”, the binding signal was 20800 fluorescence intensity (a.u.). For “TACATGATGGGAAAATAGACTTTTGCAGCAGAGATTGAATCGGAGTCACCTAGTGCAG”, the binding signal was 10200 fluorescence intensity (a.u.). In the case of “CCGATTGAACCAGGATAAACTGTTGAACCAGATCAGATGGCGGAGTCACCTAGTGCAG”, the binding signal is reported as 4760 fluorescence intensity (a.u.). With “CGTAATAAACTAAGTTCTTTGATATTGCCGTAATTTTCAACGGAGTCACCTAGTGCAG” the binding signal was 3800 fluorescence intensity (a.u.). In the case of “ATCGGTGGTGGTGGTGGTGGTGGCCATGAGTCTCGTTTGACGGAGTCACCTAGTGCAG”, the binding signal is reported as 3390 fluorescence intensity (a.u.). With “CAAATTACTAAATTAACAAGTGTTTCCTTTAGACCATAGGCGGAGTCACCTAGTGCAG” the binding signal was 26500 fluorescence intensity (a.u.). With “CTAGATTAAATCATACTATTTCATATGGTAACTGTAGTTGCGGAGTCACCTAGTGCAG” the binding signal was 25500 fluorescence intensity (a.u.). “TAAAATTGGCATATATACAAGGCTGAAAGTTCACCCCGGACGGAGTCACCTAGTGCAG” was tested, and the binding signal was 13100 fluorescence intensity (a.u.). With “CATGCAAATTAGTTAGTTAACTACAACAATTTGCTGAATTCGGAGTCACCTAGTGCAG” the binding signal was 13700 fluorescence intensity (a.u.). For “TTAAAACTAATTAAAGTTAAATGGTCATGTCTTAACATGTCGGAGTCACCTAGTGCAG”, the binding signal was 22400 fluorescence intensity (a.u.). For “CATCCCAGGTCTTAATTAAGCTAAGTCAGTCCACACAATGCGGAGTCACCTAGTGCAG”, the binding signal was 3280 fluorescence intensity (a.u.). In the case of “AATGACTGCCACCACCACTCGATATCCAACTAGGTGTGCTCGGAGTCACCTAGTGCAG”, the binding signal is reported as 7280 fluorescence intensity (a.u.). “CCTACACAACGACTGGTGACTGACTGACTGCATGCAAGGCCGGAGTCACCTAGTGCAG” was tested, and the binding signal was 3220 fluorescence intensity (a.u.). In the case of “TTAAATTGAATAATTTTAAAGTTATTTATAATCAAAGCTACGGAGTCACCTAGTGCAG”, the binding signal is reported as 22700 fluorescence intensity (a.u.). In the case of “AAATTGTATTCCTAATTGGACTCTCTTTTCCTTTTCTAATCGGAGTCACCTAGTGCAG”, the binding signal is reported as 3430 fluorescence intensity (a.u.). For “TGTGCAGTGACAAGAAATTTCCTTGCGTCTCTTTGTTTCACGGAGTCACCTAGTGCAG”, the binding signal was 3640 fluorescence intensity (a.u.). In the case of “TATTTTGATTGGAGCGTCTATTTAATATTGGGCCCTATAACGGAGTCACCTAGTGCAG”, the binding signal is reported as 31900 fluorescence intensity (a.u.). “GGTATATGTAATTTGAATTCCGTATCAATTGTTTTGCTAGCGGAGTCACCTAGTGCAG” was tested, and the binding signal was 4910 fluorescence intensity (a.u.). In the case of “TAGCAAACTGATAGTTTTGTCACTAAAGTTATAGTTTTCTCGGAGTCACCTAGTGCAG”, the binding signal is reported as 3340 fluorescence intensity (a.u.). With “AATTGATTTAATTTGGGACGGAGGAAATAGTACAATTCACCGGAGTCACCTAGTGCAG” the binding signal was 41900 fluorescence intensity (a.u.). For “ACTTGTTGATTTATATACCCTTGCTGTCTATGTGAATTTCCGGAGTCACCTAGTGCAG”, the binding signal was 10100 fluorescence intensity (a.u.). For “AACAAATGCATAATTTATCCACTTCAAGCCCTGGGAAAATCGGAGTCACCTAGTGCAG”, the binding signal was 3680 fluorescence intensity (a.u.).
